# In PubChem BioAssay AID1963969 (Molecular Pharmacology Branch, DTP, NCI, 2024):
# For part of its entries the source gives two or more results. The list is limited to them. An entry can have further records. The values listed for one entry are repeated measurements in other runs, samples, wells, individuals or studies. Counts like (3×) count equal records among those shown.
# System: 817829-284-R-J1-PDC multi-cell spheroid viability
# Test: Anticancer human tumor 817829-284-R-J1-PDC patient-derived colon adenocarcinoma cell line growth inhibition [PI3K]
# Conditions: for viability, T/C: stronger effect = lower value
# Excerpt: Combinatorial screen of targeted agents with the PI3K inhibitors inavolisib, alpelisib, duvelisib, and copanlisib in multi-cell type tumor spheroids
# A high-throughput screen of multi-cell type tumor spheroids was designed to identify active combinations of targeted small molecules and PI3K pathway inhibitors. Complex spheroids include a stromal component modeled by human endothelial cells (HUVEC) and fibroblasts modeled by human mesenchymal stem cells (MSCs). The concentration ranges selected for each drug and investigational agent were based upon clinically achievable concentrations if the clinical Cmax of the agent was known.
# Compounds. The drugs and investigational agents: inavolisib (NSC800729), alpelisib (NSC765974), duvelisib (NSC772469), copanlisib (NSC816437), ipatasertib (NSC767898), afuresertib (NSC778305), talazoparib (NSC767125), sapanisertib (NSC764658), selumetinib (NSC741078), tovorafenib (DAY101, NSC766906), vemurafenib (NSC761431), ravoxertinib (NSC781343), sotorasib (NSC818433), MRTX1133 (NSC 836407), abemaciclib (NSC 768073), palbociclib (NSC758247), venetoclax (NSC 766270), SY5609 (NSC837396), enzalutamide (NSC755605), and darolutamide (NSC825331), were obtained from the National Cancer Institute (NCI) Developmental Therapeutics Program Chemical Repository. The FDA-approved anticancer drug set is available from the NCI Developmental Therapeutics Program. […] The stock solutions were prepared in dimethyl sulfoxide (DMSO, Sigma-Aldrich, St. Louis, MO, cat. D2650) at 800-fold the tested concentration and stored at -70 degrees C prior to their use. All drugs and investigational agents were tested over a range starting from a high concentration at or near the clinical Cmax and decreasing in half-log increments. If the clinical Cmax for an agent had not been determined, the highest concentration tested was 10 microM.
# Cell Culture. All cells were maintained in an incubator at 37 degrees C and 5% CO2 with 95% humidity. The PDC lines were cultured according to standard operating procedures established by the NCI PDMR (https://pdmr.cancer.gov/sops/default.htm). All PDCs were thawed and cultured in Matrigel-coated flasks prepared with a working solution of 1X Ham's F-12 nutrient mix, without supplementation (Invitrogen, Waltham, MA, cat. 11765054), 100 U/mL penicillin-streptomycin (Invitrogen, cat. 15140122), and 2.5% Matrigel (Corning Inc., Corning, NY, cat. 354248) for the first three passages. The 354836-022-R-J1-PDC, 475296-252-R-J1-PDC, and 997726-040-R-J2-PDC lines were cultured in 6A media, which includes advanced DMEM/F-12 (Thermo Fisher Scientific, cat. 12634028), 10 mM HEPES (Thermo Fisher Scientific, cat. 15630080), 1X GlutaMAX supplement (Thermo Fisher Scientific, cat. 35050061), 0.1 mg/mL primocin (InvivoGen, San Diego, CA, cat. ant-pm-2), 10% defined fetal bovine serum, heat inactivated (HyClone Laboratories Inc., Logan, UT, cat. SH30070.03HI), 50% L-WRN conditioned media (ATCC, cat. CRL-3276), 1.25 mM N-Acetyl-L-cysteine (Sigma-Aldrich, cat. A9165), 10 mM nicotinamide (Sigma-Aldrich, cat. N0636), 1X B-27 supplement (Thermo Fisher Scientific, cat. 17504044), 1X N-2 supplement (Thermo Fisher Scientific, cat. 17502048), and 10 microM Y-27632 dihydrochloride (Tocris Bioscience, Bristol, United Kingdom, cat. 1254). The 624824-186-R-J2-PDC line was cultured in 6C/Colon 1B media, which includes all 6A media components plus 50 ng/mL human EGF recombinant protein (Thermo Fisher Scientific, cat. PHG0311). […]
# 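Further: spheroids exposed to agents for seven days before readout.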
# 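Wherever viability, T/C is given: percent of vehicle DMSO control viability which is 100%.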
Compound,"viability, T/C (compound alone 0.01 µM)","viability, T/C (compound alone 0.0316 µM)","viability, T/C (compound alone 0.1 µM)","viability, T/C (compound alone 0.316 µM)","viability, T/C (compound alone 1 µM)","viability, T/C (compound alone 3.16 µM)","viability, T/C (compound alone 10 µM)","viability, T/C (compound alone 0.00316 µM)",further results
CC(Nc1ccc2c(c1)OCCn1cc(N3C(=O)OCC3C(F)F)nc1-2)C(N)=O (stereo not drawn),"54.4, 71.2, 95.4 (2×), 83, 99.5%","88.2, 74, 89, 66, 59.6, 85.4%","54.5, 60.8, 77.5, 89.7, 84, 80.3%","71.4, 39.9, 46.4, 47.6, 90.3, 67.1%","55.1, 59.8, 47.1, 55.6, 69.4, 72.5%",,,,
Cc1nc(NC(=O)N2CCCC2C(N)=O)sc1-c1ccnc(C(C)(C)C(F)(F)F)c1 (stereo not drawn),,"90, 75.9, 102, 84.3, 120, 94.2%","78.2, 74.7, 96.2, 106, 120, 79.4%","86.9, 84.7, 88.2, 61.9, 62.5, 98%","94.8, 61.8, 68.7, 69.8, 69, 77.2%","67.4, 57.3, 114, 68.2, 73.7, 95%",,,
CC(Cn1ccc(-c2ccc(C#N)c(Cl)c2)n1)NC(=O)c1cc(C(C)O)[nH]n1 (stereo not drawn),,"56.1, 112, 86.7, 79.7%","75.5, 72.5, 82.2, 119%","93.4, 74.3, 66.4, 73.7%","84.1, 90.4, 82.1, 110%","79.3, 101, 77.2, 73.8%","51.4, 75.3, 64, 119%",,
COc1c(OCCCN2CCOCC2)ccc2c3n(c(=NC(=O)c4cnc(N)nc4)nc12)CCN3,,,,,,,,"119, 55.9, 81.2, 87.2, 110, 76.2%",
CC(=O)c1c(C)c2cnc(Nc3ccc(N4CCNCC4)cn3)nc2n(C2CCCC2)c1=O,"69.4, 49.4, 75, 73.7%",,,,,,,"58.4, 82.3, 90.7, 61.9%","IC50 (compound alone): 86, 9.7, 27.2, 42 nM; viability, T/C (compound alone 0.000316 µM): 66.7, 102, 71, 78.7%; viability, T/C (compound alone 0.001 µM): 49.1, 137, 84.3, 98.8%"
CC1(C)CCC(CN2CCN(c3ccc(C(=O)NS(=O)(=O)c4ccc(NCC5CCOCC5)c([N+](=O)[O-])c4)c(Oc4cnc5[nH]ccc5c4)c3)CC2)=C(c2ccc(Cl)cc2)C1,,,,,,,"7.08%, 5.43%, 102%",,
